# Measured values from article PMC4336329 (PLoS ONE, 2015).
# Out of some 310,000 compounds screened, about 14,000 (4.5%) showed an effect of 50% or more. The effect is printed as a negative number. The list shows a part of the results.
# Molecular target: human ether-à-go-go-related gene (hERG) potassium channel (human, UniProt Q12809)
# Assay: primary screen, population patch clamp on CHO cells stably expressing hERG
# 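Also: peak tail current of the secondary pulse compared with the same well before compound.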
# Chain of human ether-à-go-go-related gene (hERG) potassium channel (Q12809 whole entry, looked up): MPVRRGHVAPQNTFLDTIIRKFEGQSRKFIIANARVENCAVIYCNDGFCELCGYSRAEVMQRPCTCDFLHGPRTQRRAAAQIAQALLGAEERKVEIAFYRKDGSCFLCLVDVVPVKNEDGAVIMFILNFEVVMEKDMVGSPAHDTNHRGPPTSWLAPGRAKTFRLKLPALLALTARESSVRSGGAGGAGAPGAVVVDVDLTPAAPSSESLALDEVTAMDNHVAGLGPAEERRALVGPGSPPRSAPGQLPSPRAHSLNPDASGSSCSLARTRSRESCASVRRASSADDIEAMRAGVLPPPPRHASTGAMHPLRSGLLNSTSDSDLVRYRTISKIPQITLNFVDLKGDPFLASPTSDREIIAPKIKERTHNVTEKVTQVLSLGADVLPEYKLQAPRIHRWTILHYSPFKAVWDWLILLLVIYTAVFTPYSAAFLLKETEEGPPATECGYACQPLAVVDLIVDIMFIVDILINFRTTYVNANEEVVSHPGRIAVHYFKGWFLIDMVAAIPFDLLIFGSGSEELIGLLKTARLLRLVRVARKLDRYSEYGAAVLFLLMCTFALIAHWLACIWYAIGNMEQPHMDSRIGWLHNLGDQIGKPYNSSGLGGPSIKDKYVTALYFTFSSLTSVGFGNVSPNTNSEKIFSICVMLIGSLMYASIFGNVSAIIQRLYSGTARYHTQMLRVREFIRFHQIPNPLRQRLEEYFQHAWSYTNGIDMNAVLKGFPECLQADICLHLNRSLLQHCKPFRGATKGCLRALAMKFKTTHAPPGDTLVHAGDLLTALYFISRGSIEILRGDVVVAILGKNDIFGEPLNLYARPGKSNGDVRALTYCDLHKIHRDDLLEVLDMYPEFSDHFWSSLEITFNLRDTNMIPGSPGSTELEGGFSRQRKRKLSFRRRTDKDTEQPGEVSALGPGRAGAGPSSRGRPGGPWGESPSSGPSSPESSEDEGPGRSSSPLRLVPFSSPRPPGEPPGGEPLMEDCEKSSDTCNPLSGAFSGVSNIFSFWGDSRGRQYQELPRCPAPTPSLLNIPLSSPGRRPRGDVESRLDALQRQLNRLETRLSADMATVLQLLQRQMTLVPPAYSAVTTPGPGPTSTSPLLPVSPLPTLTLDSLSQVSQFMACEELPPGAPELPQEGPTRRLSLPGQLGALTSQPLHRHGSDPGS
row,Structure (SMILES),"hERG current change (%, negative = inhibition) at 10uM"
1,Cc1ccc(NC(=O)C[n+]2cc(-c3ccccc3)n3c2CCC3)c(C)c1.[Cl-],-9.62%
2,Cc1cc(C)nc(SCC(=O)N/N=C/c2cccn2-c2cccc(C(F)(F)F)c2)n1,-24.1%
3,CC(=O)Nc1ccc(S(=O)(=O)NCCC(=O)N2CCC(Cc3ccccc3)CC2)cc1,-26.9%
4,N#Cc1ccc(-c2nc3ccc(Br)cc3c(=O)n2O)cc1,18.3%
5,CC(C)Cc1c(O)nc(SCC(=O)Nc2ccc3c(c2)CCC3)[nH]c1=O,0.715%
6,CCC(=O)N1c2ccc(S(=O)(=O)NCCc3ccc(OC)c(OC)c3)cc2CC1C (stereo not drawn),10.3%
7,C[C@@]12C(=O)N(c3ccc(C(F)(F)F)cc3)C(=O)N1[C@@H]1c3ccccc3OC[C@@H]1[C@H]2c1ccccc1,20%
8,Cn1c(=O)c2c(nc(CN3CCC(C(N)=O)CC3)n2CCCc2ccccc2)n(C)c1=O,-12.6%
9,CCC(=O)c1ccccc1OCC(=O)Nc1c(C)cccc1C,-5.87%
10,CCOc1cc(/C=N/NC(=O)Nc2ccccc2)ccc1O,-14.2%
11,CCn1c(SCC(=O)c2ccc(O)c(O)c2)nnc1-c1ccccc1,-13.3%
12,CCn1cc(CCC(=O)NCCN2CCOCC2)c2ccccc21,14.4%
13,CCOc1cc(C=O)ccc1OCc1cc(=O)n2cc(C)ccc2n1,7.13%
14,NS(=O)(=O)c1ccc(CCNC(=O)COc2ccc3c4c(c(=O)oc3c2)CCC4)cc1,9.18%
15,Cc1cccc(-c2nnc3n2N=C(c2ccccc2)CS3)c1,15.2%
16,O=C(NCc1ccco1)C(c1ccco1)N(CCc1ccccc1)C(=O)Cn1nnc2ccccc21 (stereo not drawn),-4.92%
17,COc1cccc(/C=C2\SC(=O)N(CCC(=O)NCCCn3ccnc3)C2=O)c1,-31.4%
18,CCN(CC)CCOC(=O)c1cccc(OC)c1.Cl,-15.1%
19,CCOC(=O)[C@H]1[C@H]2COc3cc(OC)ccc3[C@@H]2N2C(=O)c3ccc(C)cc3NC(=O)[C@@]12C,-9.55%
20,CC(NC(=O)c1ccccc1F)C12CC3CC(CC(C3)C1)C2 (stereo not drawn),-13.5%
21,CCc1ccc(C(C(=O)NC2CCCCC2)N(C(=O)c2csnn2)C2CC2)cc1 (stereo not drawn),12.4%
22,O=C(Cn1cnc2ccccc21)N/N=C/c1ccccn1,6.67%
23,COc1ccc(N2CCN(c3ccc(NC(=O)/C=C\C(=O)O)cc3)CC2)cc1,9.65%

row,Structure (SMILES),"hERG current change (%, negative = inhibition) at 10uM"
1,Cc1nc(CSc2n[nH]c(=O)n2-c2cccc(F)c2)cs1,17.4%
2,CCCCNC(=O)c1onc(CSc2ccc(C(C)C)cc2)c1C(=O)O,0.532%
3,COc1ccc(NC(=O)c2ccccc2[N+](=O)[O-])cc1OC,-1.55%
4,CCc1ccc(-n2nc3cc(C)c(N)cc3n2)cc1,13%
5,O=C(/C=C/c1ccccc1Cl)c1ccc[nH]1,17.1%
6,COc1c(-c2ccc(O)cc2)oc2cc(O)cc(O)c2c1=O,-12.2%
7,c1ccn2c(SCc3ccc4c(c3)OCCO4)nnc2c1,-23.9%
8,COc1cc2cc(NC(C)=O)cc(NCc3ccccc3)c2cc1OC,10.9%
9,CCCn1nnc(NC(=O)c2cc(Br)cc(Br)c2OC)n1,-29%
10,O=S(NCc1ccco1)C12CC3CC(CC(C3)C1)C2 (stereo not drawn),11.2%
11,COc1cccc(CNn2cnnc2)c1OCc1ccc(F)cc1,8.12%
12,C=CCNC(=O)/C(C#N)=C/c1ccc(SC)cc1,-15.3%
13,Cc1nc2ccccn2c1C(=O)OCC#N,20.1%
14,Cc1cc(S(=O)(=O)N2CCOCC2)ccc1OCC(=O)NCc1ccccn1,-12.5%
15,Cc1cc(F)c(F)cc1C(=O)N1CCCC1,13.2%
16,Fc1cccc(Cl)c1Cn1nnc(-c2ccc(N3CCOCC3)cc2)n1,8.99%
17,Cc1ccc(NC(=O)CSCC(=O)N2CCN(C(=O)c3ccco3)CC2)cc1,-21.6%
18,CCCC(=O)Nc1nc(C)c(-c2csc(Nc3cc(OC)ccc3OC)n2)s1,5.5%
19,CCCC[C@H](CN(N=O)[C@@H](Cc1ccccc1)CN(C)N=O)N(CCc1ccccc1)N=O.[Na+],-3.27%
20,CCCOc1ccc(C(=O)NNC(=S)NC(=O)c2ccccc2[N+](=O)[O-])cc1,15.2%
21,Clc1ccc(-c2nnc(-c3ccco3)nc2N2CCCCC2)cc1,-37.5%
22,CCOC(=O)C(C(=O)Nc1ccccc1)C1CCCCC1 (stereo not drawn),-1.53%
